This is an account of results in PubChem BioAssay AID1240 (Sanford-Burnham Center for Chemical Genomics, 2008).

Hit rate of the full screen: of about 50,000 compounds, about 800 (1.6%) showed an effect of 50% or more. This is one part of the list.

The target in this assay is Bcl-2-like protein 10 (Homo sapiens) (UniProt Q9HD36). Description: Phenotype converters, Bcl-B/TR3 peptide binding displacement, primary biochemical FP (AID 1240).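 Further: 0% = Bcl-B with tracer peptide and DMSO and 100% = tracer peptide lacking Bcl-B.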 As to conditions: GST-Bcl-B / FITC-TR3 peptide fluorescence polarization; stronger effect = higher value; compound at 3.75 mg/L.
UniProt Q9HD36, sequence (Q9HD36 whole entry, looked up): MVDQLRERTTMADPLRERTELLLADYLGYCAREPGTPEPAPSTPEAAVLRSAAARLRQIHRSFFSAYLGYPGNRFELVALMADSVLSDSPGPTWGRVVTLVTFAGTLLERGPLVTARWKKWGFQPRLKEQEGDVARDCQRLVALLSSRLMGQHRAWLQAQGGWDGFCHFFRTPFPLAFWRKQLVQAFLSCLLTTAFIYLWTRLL
`CC/C(=C\c1cc(Br)c(O)c(OC)c1)[N+](=O)[O-]`: the displacement stood at 2.6%. With `CCc1ccc(CNCCc2ccc(OC)c(OC)c2)cc1`, the displacement was -11.2%. For the compound `Cc1ccc(-n2c(/C=C/c3ccc(O)c(O)c3)nc3ccccc3c2=O)cc1`, the displacement came out at 54.7%.

On to `CCOc1ccc(CNCCc2ccc3c(c2)OCO3)cc1`, for which the displacement was -9.1%. As to `COc1ccccc1CN1CCN(Cc2ccccc2F)CC1`, the displacement was -5.2%. For `CCNc1ccc(Br)cc1C(=O)c1ccccc1`, the displacement was found to be 1.7%. As to `O=C1NC(=S)N(c2cccc(Cl)c2)C(=O)/C1=C/c1ccc(Cl)cc1`, the displacement is 16.4%. As to `COc1ccc(CCNCc2cccc([N+](=O)[O-])c2)cc1OC`, the displacement is -9.4%. Under `CC(C)Oc1ccccc1C=C1C(=O)NC(=O)NC1=O` stands 17.1%; under `Cc1ccc(-c2ccc(C=C3C(=O)NC(=S)NC3=O)o2)c(Br)c1`, 13.7%; under `CN(C)S(=O)(=O)c1ccc(C(=O)Nc2ccc(Cl)cc2C(=O)c2ccccc2)cc1`, -24%. In the case of `COc1cc(C)cc2oc(=O)c3c(c12)CCC3`, the displacement amounted to 9.6%. For the compound `COc1ccc(CCNCc2ccccc2Cl)cc1OC`, the displacement is -5%. Regarding `COc1cc(C)c(CNCCc2ccccc2F)cc1C`, the displacement was -4.7%. As for `COC(=O)COc1ccc(/C=C2\C(=O)NC(=S)N(c3ccc(C)cc3)C2=O)cc1OC`, the displacement was -13.5%. Take `COc1cc(C)cc2oc(=O)c3c(c12)CCCC3`: the displacement was -6.4%. Under `O=c1c2cc(I)ccc2nc(/C=C/c2cccc([N+](=O)[O-])c2)n1-c1ccccc1` stands 10%. Under `CCOC(=O)C(C(=O)OCC)c1ccccc1` stands -1.9%. Under `O=C(Cc1ccccc1)NC(NC(=O)Cc1ccccc1)c1ccc(F)cc1` stands -6.9%; under `CC/C(=C/c1ccc(O)c(OC)c1)[N+](=O)[O-]`, 3.9%. Regarding `O=c1c2ccccc2nc(/C=C/c2ccc(Cl)cc2)n1-c1cccc(O)c1`, the displacement stood at 2.8%. With `CN1CCN(c2nc3ccc([N+](=O)[O-])cc3s2)CC1`, the displacement came out at 5%.

Turning to `CC1=NN(c2ccccc2)C(=O)C1/C=C1\C(=O)NC(=O)N(c2cccc(C)c2)C1=O` (stereo not drawn), the displacement amounted to 5.7%. As for `CCOC(=O)CNC(=O)CN1CC1C(=O)OCC` (stereo not drawn), the figure is -13.6%; as for `CC1CN(c2ccc([N+](=O)[O-])c(NCCO)c2)CCN1` (stereo not drawn), 8.1%. Take `CCOc1ccc(CN2CCN(Cc3ccccc3)CC2)cc1`: the displacement was -3.3%. As to `CCc1ccc(CNCCc2ccc3c(c2)OCO3)cc1`, the displacement is -15.8%. For the compound `CC(C)N1CCN(Cc2ccccc2Br)CC1`, the displacement was determined as 1.2%.

On to `COc1ccc(C=C(C#N)C#N)cc1O`, for which the displacement is 12.3%.

As for `CCC(=O)N1N=C2C3CCN(CC3)C2C1c1ccc([N+](=O)[O-])cc1` (stereo not drawn), the displacement was -2%. As for `CCN1CC2([N+](=O)[O-])CC=C(Br)C([N+](=O)[O-])(C1)C2` (stereo not drawn), the displacement is -17.4%. Take `COc1ccc(-n2c(-c3ccncc3)nc3ccccc3c2=O)cc1`: the displacement was -9%. As for `O=c1oc2ccccc2c(O)c1C(c1cccc(F)c1)c1c(O)c2ccccc2oc1=O`, the figure is 15%.
